{"source": "the supplement of paper PMC4967469", "test_in_all_cases": "Viability of human cancer cell lines after 72 h of drug (GDSC screen)", "key": {"[1]": {"compound": "CCOc1nc(NC(=O)Cc2cc(OC)ccc2OC)cc(N)c1C#N [JNK Inhibitor VIII]", "conditions": "top dose 10 µM; top dose inferred", "description": "(§1)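 Human cancer cell lines in 384-well plates, medium with 10% serum, drug for 72 h over a 256-fold dose range (nine 2-fold or five 4-fold steps up to the top dose). Adherent lines were fixed and stained with the nucleic acid dye Syto60, suspension lines read with resazurin; signal relative to control wells, capped at 0 and 100%. One two-parameter sigmoid per drug and line, fitted in a mixed model over all curves with the slope shared within a line.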"}, "[2]": {"compound": "Cc1[nH]c(/C=C2\\C(=O)Nc3ccc(S(=O)(=O)Cc4c(Cl)cccc4Cl)cc32)c(C)c1C(=O)N1CCC[C@@H]1CN1CCCC1 [PHA-665752]", "conditions": "top dose 2 µM", "description": "as §1"}, "[3]": {"compound": "C[C@]1(O)C[C@@H](c2nc(-c3ccc4ccc(-c5ccccc5)nc4c3)c3c(N)nccn32)C1 [OSI-906]", "conditions": "top dose 2.56 µM; top dose inferred", "description": "as §1"}, "[4]": {"compound": "CC1=C2C[C@H]3[C@@H](CC=C4C[C@@H](O)CC[C@@]43C)[C@@H]2CC[C@]12O[C@@H]1C[C@H](C)CN[C@H]1[C@H]2C [Cyclopamine]", "conditions": "top dose 16 µM; top dose inferred", "description": "as §1"}, "[5]": {"compound": "O=C(/C=C/c1cccc(S(=O)(=O)Nc2ccccc2)c1)NO [Belinostat]", "conditions": "top dose 20 µM; top dose inferred", "description": "as §1"}, "[6]": {"compound": "COC(=O)[C@H](CCSC)NC(=O)c1ccc(NC[C@@H](N)CS)cc1-c1ccccc1 [FTI-277]", "conditions": "top dose 1.024 µM; top dose inferred", "description": "as §1"}, "[7]": {"compound": "COCC[n+]1c2c(n(Cc3cnccn3)c1C)C(=O)c1ccccc1C2=O [YM155]", "conditions": "top dose 5.12 µM", "description": "as §1"}, "[8]": {"compound": "OCCCNc1cc(-c2ccnc(Nc3cccc(Cl)c3)n2)ccn1 [CGP-60474]", "conditions": "top dose 0.256 µM; top dose inferred", "description": "as §1"}, "[9]": {"compound": "Cc1sc2c(c1C)C(c1ccc(Cl)cc1)=N[C@@H](CC(=O)OC(C)(C)C)c1nnc(C)n1-2 [JQ1]", "description": "as §1"}, "[10]": {"compound": "CC1(C)CNc2cc(NC(=O)c3cccnc3NCc3ccncc3)ccc21 [AMG-706]", "conditions": "top dose 2 µM; top dose inferred", "description": "as §1"}, "[11]": {"compound": "CN1CCN(c2ccc([N+](=O)[O-])c3no[n+]([O-])c23)CC1 [NSC-207895]", "conditions": "top dose 20 µM; top dose inferred", "description": "as §1"}, "[12]": {"compound": "Cc1ccc(C(=O)N(CCCN)[C@@H](c2nc3cc(Cl)ccc3c(=O)n2Cc2ccccc2)C(C)C)cc1 [SB-715992]", "conditions": "top dose 0.128 µM; top dose inferred", "description": "as §1"}, "[13]": {"compound": "COc1cc(N2CCC(N3CCN(C)CC3)CC2)ccc1Nc1ncc(Cl)c(Nc2ccccc2S(=O)(=O)C(C)C)n1 [NVP-TAE684]", "conditions": "top dose 2 µM", "description": "as §1"}, "[14]": {"compound": "c1ccc2c(CCNc3ccc(Nc4ccncc4)cc3)c[nH]c2c1 [JNJ-26854165]", "conditions": "top dose 10 µM", "description": "as §1"}, "[15]": {"compound": "CC(=O)O[C@@]12CO[C@@H]1C[C@H](O)[C@@]1(C)C(=O)[C@H](O)C3=C(C)[C@@H](OC(=O)[C@H](O)[C@@H](NC(=O)OC(C)(C)C)c4ccccc4)C[C@@](O)([C@@H](OC(=O)c4ccccc4)[C@H]21)C3(C)C [Docetaxel]", "conditions": "top dose 0.0125 µM", "description": "as §1"}, "[16]": {"conditions": "top dose 1 µM, screen: GDSC drug entry 1218, top dose inferred"}, "[17]": {"conditions": "top dose 2.56 µM, screen: GDSC drug entry 163"}}, "note": "The IC50 comes from the fitted curve, where viability falls to half of the control; a limit (>, <) means that the fit lies beyond the doses tested. AUC, from the same fit, is the share of area under the viability curve across the 256-fold dose range; the more sensitive the line, the further below 1. For some assays here: An inferred top dose was calculated from the reported fits. For some assays here: Where an entry number is given, a second screen of the drug exists; the two often differ."}
{"cell line": "Raji (Burkitt lymphoma, suspension)", "values": [{"measurement": "AUC", "setting": "[1]", "value": 0.983}, {"measurement": "IC50", "setting": "[1]", "value": "> 10000", "unit": "nM"}, {"measurement": "AUC", "setting": "[2]", "value": 0.99}, {"measurement": "IC50", "setting": "[2]", "value": "> 2000", "unit": "nM"}, {"measurement": "AUC", "setting": "[3]", "value": 0.902}, {"measurement": "IC50", "setting": "[3]", "value": "> 2560", "unit": "nM"}, {"measurement": "AUC", "setting": "[4]", "value": 0.987}, {"measurement": "IC50", "setting": "[4]", "value": "> 16000", "unit": "nM"}, {"measurement": "AUC", "setting": "[5]", "value": 0.307}, {"measurement": "IC50", "setting": "[5]", "value": 376, "unit": "nM"}, {"measurement": "AUC", "setting": "[6]", "value": 0.985}, {"measurement": "IC50", "setting": "[6]", "value": "> 1020", "unit": "nM"}, {"measurement": "AUC", "setting": "[7]", "value": 0.024}, {"measurement": "IC50", "setting": "[7]", "value": "< 20", "unit": "nM"}, {"measurement": "AUC", "setting": "[8]", "value": 0.663}, {"measurement": "IC50", "setting": "[8]", "value": 44, "unit": "nM"}, {"measurement": "AUC", "setting": "[9]; [16]", "value": 0.857}, {"measurement": "IC50", "setting": "[9]; [16]", "value": 732, "unit": "nM"}, {"measurement": "AUC", "setting": "[9]; [17]", "value": 0.757}, {"measurement": "IC50", "setting": "[9]; [17]", "value": 826, "unit": "nM"}, {"measurement": "AUC", "setting": "[10]", "value": 0.988}, {"measurement": "IC50", "setting": "[10]", "value": "> 2000", "unit": "nM"}, {"measurement": "AUC", "setting": "[11]", "value": 0.969}, {"measurement": "IC50", "setting": "[11]", "value": "> 20000", "unit": "nM"}, {"measurement": "AUC", "setting": "[12]", "value": 0.912}, {"measurement": "IC50", "setting": "[12]", "value": "> 128", "unit": "nM"}, {"measurement": "AUC", "setting": "[13]", "value": 0.99}, {"measurement": "IC50", "setting": "[13]", "value": "> 2000", "unit": "nM"}, {"measurement": "AUC", "setting": "[14]", "value": 0.959}, {"measurement": "IC50", "setting": "[14]", "value": "> 10000", "unit": "nM"}, {"measurement": "AUC", "setting": "[15]", "value": 0.983}, {"measurement": "IC50", "setting": "[15]", "value": "> 12.5", "unit": "nM"}]}
